Some of the results follow.
Key:
Assay in all cases: glycan array binding signal (z-score within array); higher = stronger binding
Settings in all cases: glycan notation: IUPAC condensed, linker removed
[1] = target: Glc(b1-6)Glc
In short: (§1)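 Negative Z-scores can be read as non-binding. The Z-score is calculated within each array and then averaged across arrays of one protein sequence at different concentrations or buffers and across linkers. Arrays, 3228 in all, were curated from the Consortium for Functional Glycomics database and kept only where the protein sequence was available.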

[2] = target: GlcA(b1-3)Gal
In short: as §1

[3] = target: GlcA(b1-3)GlcNAc
In short: as §1

[4] = target: GlcA(b1-6)Gal
In short: as §1

[5] = target: GlcNAc(a1-3)Gal(b1-4)GlcNAc
In short: as §1

[6] = target: GlcNAc(a1-4)Gal(b1-3)GlcNAc
In short: as §1

[7] = target: GlcNAc(a1-4)Gal(b1-4)GalNAc
In short: as §1

[8] = target: GlcNAc(a1-4)Gal(b1-4)GlcNAc
In short: as §1

[9] = target: GlcNAc(a1-4)Gal(b1-4)GlcNAc(b1-3)Gal(b1-4)Glc
In short: as §1

[10] = target: GlcNAc(a1-4)Gal(b1-4)GlcNAc(b1-3)Gal(b1-4)GlcNAc
In short: as §1

[11] = target: GlcNAc(a1-4)Gal(b1-4)GlcNAc(b1-3)Gal(b1-4)GlcNAc(b1-3)Gal(b1-4)GlcNAc
In short: as §1

[12] = target: GlcNAc(a1-4)Gal(b1-4)GlcNAc(b1-3)Gal(b1-4)[Fuc(a1-3)]GlcNAc(b1-3)Gal(b1-4)[Fuc(a1-3)]GlcNAc
In short: as §1

[13] = target: GlcNAc(a1-6)Gal(b1-4)GlcNAc
In short: as §1

[14] = target: GlcNAc(b1-2)Gal(b1-3)GalNAc
In short: as §1

[15] = target: GlcNAc(b1-2)Man(a1-3)[GlcNAc(b1-2)Man(a1-6)]Man(b1-4)GlcNAc(b1-4)GlcNAc
In short: as §1

[16] = target: GlcNAc(b1-2)Man(a1-3)[GlcNAc(b1-2)Man(a1-6)]Man(b1-4)GlcNAc(b1-4)[Fuc(a1-6)]GlcNAc
In short: as §1

[17] = target: GlcNAc(b1-2)Man(a1-3)[GlcNAc(b1-4)][GlcNAc(b1-2)Man(a1-6)]Man(b1-4)GlcNAc(b1-4)GlcNAc
In short: as §1

[18] = target: GlcNAc(b1-2)[GlcNAc(b1-4)]Man(a1-3)[GlcNAc(b1-2)Man(a1-6)]Man(b1-4)GlcNAc(b1-4)GlcNAc
In short: as §1

[19] = target: GlcNAc(b1-2)[GlcNAc(b1-4)]Man(a1-3)[GlcNAc(b1-4)][GlcNAc(b1-2)Man(a1-6)]Man(b1-4)GlcNAc(b1-4)GlcNAc
In short: as §1

[20] = target: GlcNAc(b1-2)[GlcNAc(b1-4)]Man(a1-3)[GlcNAc(b1-4)][GlcNAc(b1-2)[GlcNAc(b1-6)]Man(a1-6)]Man(b1-4)GlcNAc(b1-4)GlcNAc
In short: as §1

[21] = target: GlcNAc(b1-2)[GlcNAc(b1-6)]Man(a1-6)[GlcNAc(b1-2)Man(a1-3)]Man(b1-4)GlcNAc(b1-4)GlcNAc
In short: as §1

[22] = target: GlcNAc(b1-2)[GlcNAc(b1-6)]Man(a1-6)[GlcNAc(b1-2)Man(a1-3)][GlcNAc(b1-4)]Man(b1-4)GlcNAc(b1-4)GlcNAc
In short: as §1

[23] = target: GlcNAc(b1-3)Gal
In short: as §1

[24] = target: GlcNAc(b1-3)Gal(b1-3)GalNAc
In short: as §1

[25] = target: GlcNAc(b1-3)Gal(b1-4)Glc
In short: as §1

[26] = target: GlcNAc(b1-3)Gal(b1-4)GlcNAc
In short: as §1

[27] = target: GlcNAc(b1-3)Gal(b1-4)GlcNAc(b1-3)Gal(b1-4)GlcNAc
In short: as §1

[28] = target: GlcNAc(b1-3)GalNAc
In short: as §1

[29] = target: GlcNAc(b1-3)Man
In short: as §1

[30] = target: GlcNAc(b1-3)[GlcNAc(b1-4)][GlcNAc(b1-6)]GlcNAc
In short: as §1

[31] = target: GlcNAc(b1-3)[GlcNAc(b1-6)]Gal(b1-4)GlcNAc
In short: as §1

[32] = target: GlcNAc(b1-3)[GlcNAc(b1-6)]GalNAc
In short: as §1

[33] = target: GlcNAc(b1-4)Gal(b1-4)GlcNAc
In short: as §1

[34] = target: GlcNAc(b1-4)GlcNAc
In short: as §1

[35] = target: GlcNAc(b1-4)GlcNAc(b1-4)GlcNAc
In short: as §1

[36] = target: GlcNAc(b1-4)GlcNAc(b1-4)GlcNAc(b1-4)GlcNAc(b1-4)GlcNAc
In short: as §1

[37] = target: GlcNAc(b1-4)GlcNAc(b1-4)GlcNAc(b1-4)GlcNAc(b1-4)GlcNAc(b1-4)GlcNAc
In short: as §1

[38] = target: GlcNAc(b1-4)[GlcNAc(b1-6)]GalNAc
In short: as §1

B1: Gal 4 (Canis lupus) (protein)
chain: MAYVPAPGYQPTYNPTLPYNKPIPGGLSVGMSVYIQGITSEHMRRFCVNFVAGAHPGSDIAFHFNPRFDGWDKVVFNSHLGGKWGSEEKKRSMPFRKGTHFELVFMVLAEHYKVVVNGNPFYEFGHRLPLQLVTHLQVEGDVELQSINFIGGTQPLGQGPGHTQQQPSSLPTMEGPPVFNPPVPFRKRLQGGLTVRRTVIIKGFVPFTSKSFVINFMVESSGDLALHINPRLTEGLVVRNSCLNGSWGSEDRKLSYNPFIPGQFFDLSIRCGMDRFKVYANGQHLFDFSHRLLALQNVDMLEINGDVTLSYIQV
glycan array binding signal (z-score) [1]: -0.149 | glycan array binding signal (z-score) [2]: -0.149 | glycan array binding signal (z-score) [3]: 0.144 | glycan array binding signal (z-score) [4]: -0.15 | glycan array binding signal (z-score) [5]: -0.145 | glycan array binding signal (z-score) [6]: -0.143 | glycan array binding signal (z-score) [7]: -0.148 | glycan array binding signal (z-score) [8]: -0.147 | glycan array binding signal (z-score) [9]: -0.147 | glycan array binding signal (z-score) [10]: -0.138 | glycan array binding signal (z-score) [11]: -0.145 | glycan array binding signal (z-score) [12]: -0.128 | glycan array binding signal (z-score) [13]: -0.139 | glycan array binding signal (z-score) [14]: -0.123 | glycan array binding signal (z-score) [15]: -0.145 | glycan array binding signal (z-score) [16]: -0.131 | glycan array binding signal (z-score) [17]: -0.148 | glycan array binding signal (z-score) [18]: -0.153 | glycan array binding signal (z-score) [19]: -0.157 | glycan array binding signal (z-score) [20]: -0.156 | glycan array binding signal (z-score) [21]: -0.148 | glycan array binding signal (z-score) [22]: -0.148 | glycan array binding signal (z-score) [23]: -0.149 | glycan array binding signal (z-score) [24]: -0.147 | glycan array binding signal (z-score) [25]: -0.15 | glycan array binding signal (z-score) [26]: -0.152 | glycan array binding signal (z-score) [27]: -0.154 | glycan array binding signal (z-score) [28]: -0.148 | glycan array binding signal (z-score) [29]: -0.149 | glycan array binding signal (z-score) [30]: -0.149 | glycan array binding signal (z-score) [31]: -0.149 | glycan array binding signal (z-score) [32]: -0.157 | glycan array binding signal (z-score) [33]: -0.138 | glycan array binding signal (z-score) [34]: -0.146 | glycan array binding signal (z-score) [35]: -0.145 | glycan array binding signal (z-score) [36]: -0.151 | glycan array binding signal (z-score) [37]: -0.145 | glycan array binding signal (z-score) [38]: -0.147

Source: the supplement of paper PMC8728848
